About 60 (0.1%) of roughly 46,000 compounds were called active. Inconclusive results (about 3%) are left out. Calls come from the whole dose curve; as a rule, active = well fitted inhibition curve with a large enough effect; inconclusive = small, poorly fitted or top-dose-only effect; inactive = no such curve, though single readings can be large or run the other way. This is one part of the list.
Test: Primary qHTS assay for Inhibitors of ovarian cancer metastasis using an organotypic tumor microenvironment (TME) model.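 For activity change, negative = inhibition: plate controls were DMSO wells for no effect and tomatine positive control wells for full effect.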 Note: nearly all actives have a fitted effect of over 65% in size.
Details: SKOV3ip1-GFP adhesion/invasion on 3D omental model, fluorescence; series mostly up to 45.8 µM; activity change, negative = inhibition: at the top concentration
How it was run: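 Primary human omental fibroblast/mesothelial 3D culture pre-formed 48 h. SKOV3ip1-GFP cells added with compounds (0.36-46 umol/L), incubated 2 h RT/16 h 37 C, fixed; GFP cells quantified at 488/509 nm.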

outcome, inactive:
Cc1cccc(CCNC(=O)Cn2ncc3c(=O)oc4ccccc4c32)c1
CCOC(=O)C1CCN(c2nc(-c3ccc(Br)cc3)nc3ccccc23)CC1
Cc1ccc(C)c(N2CCN(C(=O)CCCn3ncn4c(cc5occc54)c3=O)CC2)c1
CCc1ccc(-n2c(=O)c3c(C)c(C(=O)N(C)C)sc3n(Cc3cccc(C)c3)c2=O)cc1
COc1cccc(CNC(=O)CCS(=O)(=O)c2cc3c(cc2C)NC(=O)CO3)c1
COc1c(Cl)cc(Cl)cc1/C=C(\C#N)c1nc2ccccc2[nH]1
Cc1ccc(-n2c(=O)c3c4c(sc3n(Cc3ccccc3F)c2=O)CCC4)cc1C
O=C(Nc1ccccc1)N1CCN(C(=O)c2nsc3ccccc23)CC1
CC(=O)c1cccc(NC(=O)CCc2c(C)nc3c(-c4ccc(F)cc4)c(C)nn3c2C)c1
Cc1cc(=O)n2nc(N3CCC(C(=O)Nc4ccc(C(C)C)cc4)CC3)sc2n1
COc1ccc(NC(=O)Cn2c(=O)oc3cc(S(=O)(=O)NC(C)C)ccc32)cc1OC
CCOc1ccc(C(=O)c2cn(CC(=O)Nc3cc(OC)cc(OC)c3)c3ccc(F)cc3c2=O)cc1
Cc1cccc(NC(=O)Cn2c(=O)n(Cc3ccc(C(=O)NCc4ccc5c(c4)OCO5)cc3)c(=O)c3ccccc32)c1
COc1ccccc1N1CCN(S(=O)(=O)c2ccc3c(c2)oc(=O)n3C)CC1
Cc1ccccc1Cn1c(CCCNC(=O)C2CCCCC2)nc2ccccc21
O=S(=O)(c1ccc(-n2cnnn2)cc1)N1CCN(c2ccccc2F)CC1
O=C(Nc1nc(-c2ccc(Br)cc2)ns1)c1ccc(F)cc1
CCCCOc1ccc(C2c3c(-c4ccccc4O)n[nH]c3C(=O)N2Cc2ccncc2)cc1OC (configuration not stated)
CCN(CCCNC(=O)c1cc2c(=O)[nH]c3ccccc3c2s1)c1ccccc1
O=C(CN1CCN(Cc2ccccc2Cl)C1=O)NCc1ccccc1Cl
COc1ccc(-c2c(C#N)c(SCC(=O)Nc3ccccc3C)nc(C)c2C(=O)Nc2ccccc2)cc1OC
COc1ccccc1NC(=O)CSc1ccc(-c2sc(C)nc2C)nn1

Activity change, negative = inhibition, inactive:
Cc1ccc2c(c1)C(c1ccccc1)N(C(=O)c1ccc(OC(C)C)cc1)CC(=O)N2 (configuration not stated) 1.35%
CN(C)c1ccc(CNC(=O)CCCN2C(=O)CCn3nc(-c4cccn4C)cc32)cc1 7.08%
CCOc1ccc(CNC(=O)CCn2nc(C)c3c(C)n(-c4ccccc4)nc3c2=O)cc1 11.2%
CCN(CCCNC(=O)c1nn(-c2ccc(C)cc2)c(=O)c2c1c1ccccc1n2C)c1ccccc1 -5.73%
COc1ccc(C(=O)Nc2ccc3nc(SCc4ccc(C)cc4)sc3c2)cc1 0.955%
COc1ccccc1OCCCn1c(C2CC(=O)N(c3ccccc3Cl)C2)nc2ccccc21 (configuration not stated) -5.33%
Cc1ccc(Cn2c(=O)n(Cc3nc(-c4ccccc4)no3)c(=O)c3cc4c(cc32)OCO4)cc1 -0.0844%
Cc1ccccc1NC(=O)CCc1c(C)nn(-c2ccc(N3CCCCC3)nn2)c1C 2.32%
Oc1ccccc1-c1nc(/C=C/c2ccccc2Cl)no1 -13.8%
Cc1nc(-c2ccc(Cl)cc2)sc1CCNC(=O)c1ccco1 -22.7%
Cc1coc2cc3oc(=O)c(CC(=O)NCc4ccc(F)cc4)c(C)c3cc12 1.53%
Cc1ccc(O)c(-c2ccnc3cc(-c4ccc(Cl)cc4)nn23)c1 -10.3%
COc1cc(-c2nc3sccn3c2Nc2cccc(C)c2)ccc1O 0.634%
Cc1ccc2c(=O)c3cccc(CC(=O)O)c3oc2c1C -5.63%
Fc1cccc(F)c1-c1nc(-c2ccncc2)no1 12%
Cc1ccc(CCNC(=O)CCn2c(=O)c3cccn3c3ccc(F)cc32)cc1 -16.1%
COc1ccc(OC)c(NC(=O)Cn2cc(S(=O)(=O)c3ccccc3)c(=O)c3cc(C)ccc32)c1 11.3%
CCCc1nc2sc3c(N4CCCCC4)ncnc3c2c2c1CCCC2 9.19%
CCNC(=O)CC1C(=O)N(c2ccccc2)C(=O)N1Cc1ccc(F)cc1 (configuration not stated) 3.76%
Cc1ccc(NC(=O)CSc2nc(-c3ccc(F)cc3)cc(C(F)(F)F)c2C#N)cc1 -18.2%
O=C(CCn1c(=O)c2cccn2c2ccc(F)cc21)NCc1ccccc1F 6.63%
Cc1nnc(N2CCC(C(=O)NC(C)C)CC2)c2nn(-c3ccc(Cl)cc3)c(C)c12 9.5%
CCCSCCCNC(=O)C1CCN(C(=O)c2cc3sccc3n2C)CC1 -2%
COc1ccc(S(=O)(=O)N(Cc2nc(-c3cccc(C)c3)no2)C2CCCCC2)cc1 3.09%
Cc1ccccc1Cn1c(SCc2ccc(C(=O)NCc3cccs3)cc2)nc2ccncc21 -11%
Cc1cccc(OCc2nnc(SCC(=O)Nc3ccc(C)cc3C)o2)c1 3.37%
CCOc1ccc(-n2c(C)nc3c(cnn3-c3ccc(C)cc3)c2=O)cc1 0.94%
CCC(=C(c1ccc(O)cc1)c1ccc(OCCNC)cc1)c1ccccc1 -4.74%
CC(=O)c1cccc(NC(=O)Cn2c(SCC(=O)Nc3ccc(F)cc3)nc3ccccc32)c1 -9.33%
Cc1c2cnn(CC(=O)NCc3ccccc3)c(=O)c2c(C)n1Cc1cccc(Cl)c1 0.293%
CCC1CCCCN1S(=O)(=O)c1ccc(NC(=O)c2cc(=O)c3ccccc3o2)cc1 (configuration not stated) 0.713%
N#C/C(=C\c1ccc(Cl)cc1)C(=O)NCC1CCCO1 (configuration not stated) 0.0841%
Cn1cc(S(=O)(=O)c2ccccc2)c(=O)c2cc(F)c(N3CCOCC3)cc21 3.9%
COc1ccc(CCN2C(=O)N(c3ccc(F)cc3)C(=O)C2CC(=O)Nc2ccccc2)cc1 (configuration not stated) 4.39%
COCCCNC(=O)CSc1nc(-c2cccc(F)c2)[nH]c1-c1ccccc1 -3.67%
CCC(Nc1ccc(-c2nc(-c3ccco3)no2)cc1[N+](=O)[O-])c1ccccc1 (configuration not stated) 3.82%
Cc1cccc(-c2nc(CCNC(=O)Cc3ccc(F)cc3)cs2)c1 -0.268%
COc1ccccc1CNC(=O)Cn1c(=O)oc2cc(S(=O)(=O)N3CCC(C)CC3)ccc21 -8.67%
COc1ccc(-c2cc(C(F)F)n3ncc(C(=O)Nc4cc(OC)ccc4OC)c3n2)cc1 0.173%
CCOc1ccc(NC(=O)Cc2coc3ccc(C)cc23)cc1 -2.42%

From PubChem BioAssay AID1963576 (National Center for Advancing Translational Sciences (NCATS), 2024)
